# The supplement of paper PMC3334620
# In all, about 33,000 sequences were measured (“E-score (-0.5 to 0.5)”: median about -0.016, highest 2% from about 0.31 on). The list shows a part of the results.
# Biological target: Cst6 (UniProt P40535)
# Assay: PBM E-score (8-mer binding enrichment) (E-score (-0.5 to 0.5)); higher = stronger / more preferred TF binding; most listed sequences are background and not binding sites
# Details: protein concentration: 200 nM; construct: GST-DNA-binding domain
# Summary of the method: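 Bound GST-tagged yeast transcription factors, applied at about 100-200 nM to double-stranded universal all-10-mer Agilent arrays, were detected with fluorescent anti-GST. Scans were normalised with masliner. A modified Wilcoxon-Mann-Whitney statistic, the E-score, was assigned to each ungapped eight-base word pooled with its reverse complement by the Universal PBM Analysis Suite.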
row,Sequence,PBM E-score
1,AAGGAAAA,0.103
2,CCAGTATC,-0.209
3,AAGGCGGC,0.177
4,AGGGCAAT,-0.0329
5,ACAACGCG,0.102
6,GAGTGTAA,-0.0945
7,AGGGAACC,-0.105
8,CGATCCTA,-0.268
9,GAGCTCGC,-0.0933
10,CACGGTTC,-0.09
11,CCGAATTA,0.0149
12,AAGCACCC,-0.155
13,AGAACAGG,-0.0954
14,CATAATCC,-0.0642
15,TTGTTAAA,0.016
16,GCGCAGTA,0.037
17,GATCGTCC,-0.119
18,ACTACGTC,0.157
19,ATATCTTC,0.119
20,GAATGGGA,-0.236
21,CTTGCCCC,-0.281
22,ACATCTGC,-0.0513
23,GGTGTCGA,-0.157
24,CTGAGGAC,-0.204
25,ATCGAACG,0.219

row,Sequence,PBM E-score
1,AAATATGA,0.239
2,ATGACGCC,0.442
3,ACCTACCT,-0.0974
4,CCCGCAAC,0.0414
5,TAGATGAA,0.164
6,ACGCTAGT,-0.0155
7,CGGTGGCC,-0.239
8,AAAAACTG,-0.0947
9,CGGCAGGA,-0.208
10,GAGGCTAA,-0.0618
11,CAACCTCA,-0.0324
12,CGGAAGAA,0.15
13,CTACTGCC,-0.203
14,GCCCTTGA,-0.109
15,TACGAACA,0.153
16,AAGCCTCT,-0.163
17,AAGGTGAG,-0.137
18,AAGCTGCA,-0.00698
19,CAAATTGA,-0.0866
20,GAGTTACC,-0.0903
21,ACGGTTCA,-0.153
22,ACGGGCTC,-0.353
23,AGGCACAA,0.0553
24,AGAGATCT,-0.106
25,GAACCGTC,-0.0582

row,Sequence,PBM E-score
1,CAGAGCTC,-0.304
2,GCGCGACA,0.132
3,GCACCAAC,-0.16
4,CCCCACTA,-0.239
5,CAGCATAC,0.11
6,GAGGTGCC,0.0133
7,GGGAATGA,0.234
8,GCCACTTA,0.0597
9,ATCTATTG,0.169
10,TACGACTA,-0.023
11,AGACGCGG,0.0192
12,GATTGTAA,0.129
13,AAACGGAG,-0.00734
14,CAACTTAG,0.107
15,CTGTTATA,0.221
16,ACGACGAG,-0.211
17,AAGCTATT,0.0317
18,AACAAACA,0.199
19,GCCAACGA,-0.176
20,AAATTTAG,0.144
21,CCGGAGCG,-0.0828
22,CAACGGGC,-0.0486
23,CCTGCGTC,-0.127
24,GATGTTCA,-0.0673
25,GACGGTCC,-0.359

row,Sequence,PBM E-score
1,ACAAGTTG,-0.0486
2,GGTAAGCA,-0.116
3,ACGGGTTG,-0.154
4,ATGGGCGC,-0.0682
5,TCTGTTAA,0.0556
6,AAACCCCT,-0.297
7,ATTAGAAC,0.158
8,ACATGAGA,0.0628
9,AGCACGCA,-0.189
10,ACTACGCT,-0.0196
11,TGCATCCA,-0.0788
12,TCAGGGCA,-0.0741
13,CTACGCCA,-0.0436
14,CCGAAGTC,-0.129
15,GCACACCC,-0.192
16,ACCATTCG,-0.138
17,CGTAAGTC,0.171
18,ATTGCAAA,0.0862
19,CGTTAATA,0.0725
20,ATTAAGTA,0.0699
21,GGGACAAC,-0.158
22,CGGTTAGC,-0.122
23,CAATCAGG,0.0861
24,TATGACAA,0.25
25,GACTGTCC,-0.324

row,Sequence,PBM E-score
1,CAAGCTTA,-0.0191
2,GCCGGCCC,-0.206
3,GGGAAAAC,-0.0343
4,CAGCTACA,-0.112
5,GCCTTGCC,-0.0124
6,GACTAAGC,-0.196
7,AATCTGAG,-0.0919
8,CTTTAAAA,0.177
9,GTGCCCAA,-0.0335
10,GAGTATAC,0.0608
11,CAATACGA,0.12
12,ACGGTCTG,-0.189
13,ATCTACAT,0.137
14,GGGTACGA,-0.141
15,CCCACTTC,-0.126
16,ATATCCAG,0.0917
17,ATAATCCA,0.0556
18,ATAGGGAG,-0.295
19,CCGGTCGA,-0.317
20,AAACATAA,0.222
21,TAAACATA,0.231
22,GCACCGGC,-0.181
23,TACAAGTA,0.132
24,ATCCTACG,-0.0692
25,CGTGCCGA,0.048

row,Sequence,PBM E-score
1,AGGGCGTA,0.0518
2,CGGTAGGA,-0.15
3,GACCCTGC,-0.322
4,AGGGATAA,0.0215
5,GCCGCCGA,0.0801
6,ATTCACGA,0.128
7,ATTTGTTG,0.232
8,ACTAGTCT,-0.127
9,AATGGAGA,-0.0892
10,AGGCAAAG,-0.0371
11,CCAAAGTA,0.00372
12,AGGCTGAG,-0.00996
13,CAAACCAC,0.0932
14,ACATCAAT,0.288
15,GAAGTTAA,-0.0798
16,CAACATCC,-0.231
17,CGACAAGC,-0.178
18,CGCTGTGC,-0.0643
19,CCGGGAGC,-0.322
20,AGGGACCT,-0.157
21,ATGATCTG,0.231
22,AAATACAT,0.0549
23,ACAACTGC,-0.0164
24,ATGGAAAA,0.135
25,ACCTCCAA,-0.107

row,Sequence,PBM E-score
1,ACGGGTCA,-0.0243
2,CCTGATCG,0.014
3,TCCTGCCA,-0.265
4,GAGCTAAA,-0.0615
5,AAATTGAT,0.154
6,ATTTGTGA,0.146
7,GGACAAAC,-0.0601
8,ATCAATGC,0.104
9,AACATCCA,0.00499
10,GAAAAGGA,-0.00557
11,ATAGCCAG,-0.0314
12,AATAACAC,0.128
13,GACCAAGC,-0.134
14,AAACCCAG,-0.186
15,ACATCAAC,0.285
16,CCACCAAG,-0.296
17,TATAGGAA,0.149
18,GACTCACC,-0.183
19,GCCACTCA,0.00443
20,CTTCGAAC,0.0385
21,GTATCAGA,0.00532
22,GGACTGCA,-0.135
23,CAGTTGTC,-0.0348
24,GACTAGAA,0.0542
25,CTTGGGTA,-0.0581

row,Sequence,PBM E-score
1,ATCGGCGG,0.0115
2,CGGACCCC,-0.236
3,ACATCAGC,0.116
4,ATTTGGGA,-0.037
5,ACGTGCCT,0.0986
6,ATCTTCGG,0.148
7,GTTACAAC,0.15
8,AAACTAAT,0.241
9,ATCCCATC,-0.191
10,AGCCTGCG,-0.34
11,GTCCCCAC,-0.401
12,GAGTGGTA,-0.108
13,ATGTCAAT,0.26
14,AATCGAAC,0.00099
15,TAACGACA,0.0912
16,GTAGCTCA,-0.0993
17,ATCAAAGA,0.0532
18,GATTCGGC,0.0498
19,CCCTAGAG,-0.22
20,GCCTATCC,-0.148
21,GGATAACA,-0.0581
22,ACGTTCAA,0.108
23,AGCATGTC,-0.108
24,ATATTAGG,0.0359
25,AGGATGGA,-0.164

row,Sequence,PBM E-score
1,AGTACCCC,-0.27
2,ATTGCAAT,0.152
3,ATCGACAA,0.0192
4,ATGGAGGA,-0.0428
5,CTGAGCGA,-0.0721
6,AGGGCGCA,-0.0682
7,GAGGCCTA,-0.256
8,CACGTATC,0.0838
9,CAGGGTCA,-0.298
10,ACAATCCG,-0.0106
11,GGTAAAAC,0.0436
12,GGAGAACA,-0.076
13,CAAACCTG,0.0584
14,CTAGCAAG,-0.177
15,CAGAGAGA,-0.165
16,ATAACTGG,-0.161
17,GAAGGAGA,0.0368
18,AAATCCAA,0.125
19,CAGTGCCG,0.172
20,GCAGATTA,0.103
21,AATTATTC,0.219
22,CGGGGTAG,-0.199
23,AGCTAAGG,-0.205
24,ACCACCAC,0.0158
25,AGAAATTC,0.0131

row,Sequence,PBM E-score
1,AAATCGCA,0.122
2,CCTTGTGA,0.159
3,CGCTGCCC,-0.214
4,CGGTTTCA,-0.013
5,CAAGGTGG,-0.161
6,CACAACGA,0.116
7,CAATAAAA,0.165
8,CCGGCTGC,-0.102
9,AATCTCTG,-0.0578
10,AGAGAGAA,0.0541
11,AAAAGGCC,-0.135
12,CTGATGGA,-0.0729
13,AGTCTGAA,-0.0104
14,ACGCCTTG,0.213
15,AAAGCTTT,-0.0211
16,AAAACAGT,0.0923
17,ACAGCCCG,-0.229
18,ATAGTCTC,0.0392
19,AGTACGGA,0.00821
20,ACTCAGAC,-0.0358
21,AGGACAAT,-0.0178
22,ATGCATTA,0.255
23,GATAGCAA,0.181
24,ACTGAGCC,0.0371
25,CCGTTATA,-0.00095

row,Sequence,PBM E-score
1,ACACAGAG,-0.0396
2,GAGTCAGA,0.0485
3,AACTCCGA,-0.117
4,ACTAACAG,0.13
5,CCAATTAA,0.03
6,AAAAACGG,0.0517
7,AGTGTTAA,0.188
8,AGAGGAAA,0.0703
9,CTGTAGAA,0.0216
10,CTCGCGTA,0.00147
11,GATGTGGC,-0.0719
12,GTGTACCA,-0.0412
13,CCAGGACC,-0.313
14,ATTCACTA,0.104
15,TATATCGA,0.221
16,GAGCGGAC,-0.313
17,CCAACCCC,-0.0875
18,ACCATTAC,0.143
19,CAACGTGG,-0.0306
20,TGCACCCA,-0.118
21,CGAAAGCA,-0.0132
22,GACTTCTC,-0.119
23,CATTGTCA,0.115
24,ATAGGGTC,-0.232
25,AGGTAGAC,-0.192

row,Sequence,PBM E-score
1,ACTGTGCC,0.03
2,AAGATCCG,-0.0741
3,GGTTTAGA,-0.0452
4,CTAACGAC,-0.00012
5,CGAGGCCC,-0.186
6,GGACAACC,-0.138
7,ATCCATGC,0.0231
8,CCAACGTA,0.0579
9,CCCTGAGA,-0.247
10,TGAAACAA,0.141
11,TACGCAGA,0.0959
12,AACCTCCG,-0.29
13,CGTAAGAC,0.0807
14,GCGTCCCA,-0.0692
15,AAAGCCCT,-0.115
16,TAGTATAA,0.18
17,ATCTGGGG,-0.256
18,CGAAGTAA,0.143
19,GCGATACA,-0.104
20,ATGGCCCC,-0.324
21,ACATCTGA,-0.232
22,ATATCAAT,0.289
23,CCGCGCTA,0.00083
24,ATCCTCTG,-0.0896
25,AATTGCAT,0.161

row,Sequence,PBM E-score
1,CTAGATAA,0.0735
2,ACGTGTAT,0.229
3,AACACTAG,-0.0628
4,ATACGGCA,0.394
5,ATGAGTTA,0.0635
6,ATACTAGA,0.209
7,TTCCAAAA,0.0844
8,CGCGGGTA,0.0365
9,AACGACTG,-0.0864
10,AGCTGCAT,0.0177
11,CACCTACG,0.189
12,AAATTTCC,0.00111
13,AGTAGGAT,-0.071
14,ACAAATGT,0.114
15,CAGCAAGG,-0.138
16,GAGGAAGA,-0.0614
17,GTTCCATA,-0.0948
18,CAGAATTA,0.0881
19,CAGTGGCA,0.00914
20,AGGGATGA,0.0692
21,AGTAGGGC,-0.0285
22,CCACCAGG,-0.342
23,ACCCTTTG,-0.145
24,CGTTTTAC,0.0669
25,AACGGGAT,-0.122

row,Sequence,PBM E-score
1,CTACGCCC,-0.173
2,CTATAAAC,0.0949
3,TAGTTCGA,0.0591
4,CAGTACGA,0.105
5,CTAGATTA,0.125
6,ACCGAAAC,0.0323
7,TCCAACGA,-0.00506
8,CTTAGGGC,-0.221
9,ATTGTGCC,0.116
10,CAAAGTCG,-0.101
11,AGTGGTAG,-0.139
12,GCGCGAAC,-0.0573
13,ATGGTAGG,-0.169
14,ACACGCTA,-0.148
15,GCGACTTA,-0.24
16,AGTCATGA,0.124
17,CTCCGTAC,-0.0438
18,CGATAAAG,0.0753
19,GACGTAGA,0.161
